The target in assay [1] is T1, BD-M5RGA^m2 (RGA 199-587 with H471A, Y472A, Y473A, fused to the GAL4 DNA-binding domain) (Arabidopsis) (UniProt Q9SLH3).
T1 sequence: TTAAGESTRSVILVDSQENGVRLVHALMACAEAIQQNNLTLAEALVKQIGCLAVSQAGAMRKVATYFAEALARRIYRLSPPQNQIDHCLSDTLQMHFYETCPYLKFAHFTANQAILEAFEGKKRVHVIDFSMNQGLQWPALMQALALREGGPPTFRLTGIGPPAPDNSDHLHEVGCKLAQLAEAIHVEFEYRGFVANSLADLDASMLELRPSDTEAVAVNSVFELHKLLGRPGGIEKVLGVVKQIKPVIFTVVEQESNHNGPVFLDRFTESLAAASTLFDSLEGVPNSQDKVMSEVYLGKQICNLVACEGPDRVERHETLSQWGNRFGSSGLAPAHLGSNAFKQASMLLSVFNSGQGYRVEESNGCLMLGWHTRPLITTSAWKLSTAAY
Nature of the assay: two-hybrid; BD-M5DELLA (pGBKT7, RGA 199-587 and variants) and AD-JAZ1, AD-TCP14, AD-IDD2 or AD-BZR1 (pGADT7) co-transformed in yeast AH109; growth on selective medium lacking tryptophan, leucine and histidine, in some cases with 3AT.

Chains of the proteins cited; added tags and fusions are not shown.
UniProt Q8S307: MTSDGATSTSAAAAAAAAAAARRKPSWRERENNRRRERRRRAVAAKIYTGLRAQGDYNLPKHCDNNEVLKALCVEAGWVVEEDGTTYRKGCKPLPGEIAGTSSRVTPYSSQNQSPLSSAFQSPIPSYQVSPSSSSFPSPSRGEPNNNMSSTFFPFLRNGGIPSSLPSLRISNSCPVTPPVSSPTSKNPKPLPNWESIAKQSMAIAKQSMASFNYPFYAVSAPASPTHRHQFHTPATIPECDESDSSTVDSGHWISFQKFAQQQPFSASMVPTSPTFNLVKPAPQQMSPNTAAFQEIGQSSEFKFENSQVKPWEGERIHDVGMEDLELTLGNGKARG
UniProt Q93Z00: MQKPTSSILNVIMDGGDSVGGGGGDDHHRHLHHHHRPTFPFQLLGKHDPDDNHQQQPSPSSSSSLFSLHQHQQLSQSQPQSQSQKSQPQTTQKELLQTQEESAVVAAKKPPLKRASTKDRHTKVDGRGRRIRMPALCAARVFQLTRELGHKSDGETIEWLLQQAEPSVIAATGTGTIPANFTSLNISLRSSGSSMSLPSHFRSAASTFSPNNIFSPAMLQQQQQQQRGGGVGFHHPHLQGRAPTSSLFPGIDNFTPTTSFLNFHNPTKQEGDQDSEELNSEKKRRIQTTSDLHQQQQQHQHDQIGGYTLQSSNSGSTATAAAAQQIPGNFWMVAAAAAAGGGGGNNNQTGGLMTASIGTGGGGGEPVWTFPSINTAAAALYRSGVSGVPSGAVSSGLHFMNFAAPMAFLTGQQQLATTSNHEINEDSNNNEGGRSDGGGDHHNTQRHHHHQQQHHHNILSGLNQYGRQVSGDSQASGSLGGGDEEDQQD

In assay [2] the target is T2, BD-M5RGA (C-terminal part of RGA, amino acids 199 to 587, fused to the GAL4 DNA-binding domain) (Arabidopsis) (UniProt Q9SLH3).
T2 sequence: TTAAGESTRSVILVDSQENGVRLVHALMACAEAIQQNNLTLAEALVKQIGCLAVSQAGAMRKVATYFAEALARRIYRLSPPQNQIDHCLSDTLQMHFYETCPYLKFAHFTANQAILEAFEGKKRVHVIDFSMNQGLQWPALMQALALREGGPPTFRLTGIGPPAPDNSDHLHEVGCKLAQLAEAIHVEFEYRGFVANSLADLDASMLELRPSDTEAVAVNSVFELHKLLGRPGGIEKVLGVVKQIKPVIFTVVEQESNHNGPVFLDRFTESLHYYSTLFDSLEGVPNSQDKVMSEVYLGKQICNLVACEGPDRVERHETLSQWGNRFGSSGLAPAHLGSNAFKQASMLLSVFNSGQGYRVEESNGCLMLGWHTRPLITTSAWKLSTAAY
The description is as above.

The target in assay [3] is T3, BD-M5RGA^m1 (RGA 199-587 with G218A, V219A, R220A, fused to the GAL4 DNA-binding domain) (Arabidopsis) (UniProt Q9SLH3).
T3 sequence: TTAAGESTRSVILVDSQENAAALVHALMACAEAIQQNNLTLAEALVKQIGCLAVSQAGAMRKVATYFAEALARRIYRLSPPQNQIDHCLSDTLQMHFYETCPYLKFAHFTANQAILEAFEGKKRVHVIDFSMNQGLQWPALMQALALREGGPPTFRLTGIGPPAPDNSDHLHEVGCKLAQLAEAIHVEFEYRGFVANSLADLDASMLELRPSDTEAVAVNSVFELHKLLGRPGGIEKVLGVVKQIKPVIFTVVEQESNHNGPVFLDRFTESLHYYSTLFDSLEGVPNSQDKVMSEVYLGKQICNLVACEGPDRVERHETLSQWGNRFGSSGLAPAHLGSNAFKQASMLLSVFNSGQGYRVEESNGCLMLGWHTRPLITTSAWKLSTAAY
The description is as above.

The target of assay [4] is T4, BD-M5RGA^m3 (RGA from amino acid 199 with S578Stop, fused to the GAL4 DNA-binding domain) (Arabidopsis) (UniProt Q9SLH3).
T4 sequence: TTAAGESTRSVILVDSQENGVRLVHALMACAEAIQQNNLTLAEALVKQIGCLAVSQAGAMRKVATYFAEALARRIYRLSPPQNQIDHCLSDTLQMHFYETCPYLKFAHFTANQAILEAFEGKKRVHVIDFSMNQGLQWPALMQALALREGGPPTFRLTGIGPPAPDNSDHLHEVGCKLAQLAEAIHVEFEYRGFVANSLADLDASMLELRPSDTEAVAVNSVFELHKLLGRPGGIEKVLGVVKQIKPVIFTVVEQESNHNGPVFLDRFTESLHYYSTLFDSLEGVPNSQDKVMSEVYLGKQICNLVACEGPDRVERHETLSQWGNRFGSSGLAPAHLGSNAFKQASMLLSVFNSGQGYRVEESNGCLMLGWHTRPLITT
Described as above.

For assay [5], the target named is T5, BD-M5RGA^m4 (RGA 199-587 with S578D, fused to the GAL4 DNA-binding domain) (Arabidopsis) (UniProt Q9SLH3).
T5 sequence: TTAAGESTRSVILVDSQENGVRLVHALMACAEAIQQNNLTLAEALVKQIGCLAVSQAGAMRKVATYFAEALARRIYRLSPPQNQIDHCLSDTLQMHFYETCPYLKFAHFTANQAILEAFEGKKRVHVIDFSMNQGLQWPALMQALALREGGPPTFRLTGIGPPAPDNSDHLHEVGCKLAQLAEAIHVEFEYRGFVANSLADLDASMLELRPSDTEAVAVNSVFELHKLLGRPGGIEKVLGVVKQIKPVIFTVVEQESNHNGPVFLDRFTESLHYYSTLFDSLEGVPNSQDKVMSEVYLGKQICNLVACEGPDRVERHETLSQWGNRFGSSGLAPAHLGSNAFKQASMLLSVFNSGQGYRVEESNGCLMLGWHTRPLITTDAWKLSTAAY
The description is as above.

A further assay deals with T6, RGA-GFP (Arabidopsis) (UniProt Q9SLH3).
T6 sequence: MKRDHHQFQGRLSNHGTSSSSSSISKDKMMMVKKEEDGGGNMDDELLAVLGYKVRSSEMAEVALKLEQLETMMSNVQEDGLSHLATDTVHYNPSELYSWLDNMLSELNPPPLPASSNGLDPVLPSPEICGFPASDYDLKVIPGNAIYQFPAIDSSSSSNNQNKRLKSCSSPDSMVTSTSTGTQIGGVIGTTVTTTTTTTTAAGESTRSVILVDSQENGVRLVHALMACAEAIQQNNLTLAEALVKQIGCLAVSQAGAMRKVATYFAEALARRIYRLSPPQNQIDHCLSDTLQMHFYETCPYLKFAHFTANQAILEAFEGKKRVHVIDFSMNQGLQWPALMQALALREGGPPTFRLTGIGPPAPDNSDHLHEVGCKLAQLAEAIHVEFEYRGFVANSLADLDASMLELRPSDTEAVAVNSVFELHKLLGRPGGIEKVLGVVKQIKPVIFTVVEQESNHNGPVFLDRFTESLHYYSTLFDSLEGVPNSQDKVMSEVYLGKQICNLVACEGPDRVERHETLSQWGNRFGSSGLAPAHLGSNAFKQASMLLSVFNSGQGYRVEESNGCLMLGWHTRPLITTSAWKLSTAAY
Nature of the assay: co-IP; protein extracts of N. benthamiana agro-infiltrated leaves (native extraction buffer, Tris-HCl pH 7.5 50 mM, glycerol 10%, nonidet P-40 0.1%); 2 h at 4 °C with anti-GFP paramagnetic beads; co-precipitated RFP fusions detected with anti-RFP.

Assay [6] has as its target T7, BD-RGA^m2 (full-length RGA with H471A, Y472A, Y473A, fused to the GAL4 DNA-binding domain) (Arabidopsis) (UniProt Q9SLH3).
T7 sequence: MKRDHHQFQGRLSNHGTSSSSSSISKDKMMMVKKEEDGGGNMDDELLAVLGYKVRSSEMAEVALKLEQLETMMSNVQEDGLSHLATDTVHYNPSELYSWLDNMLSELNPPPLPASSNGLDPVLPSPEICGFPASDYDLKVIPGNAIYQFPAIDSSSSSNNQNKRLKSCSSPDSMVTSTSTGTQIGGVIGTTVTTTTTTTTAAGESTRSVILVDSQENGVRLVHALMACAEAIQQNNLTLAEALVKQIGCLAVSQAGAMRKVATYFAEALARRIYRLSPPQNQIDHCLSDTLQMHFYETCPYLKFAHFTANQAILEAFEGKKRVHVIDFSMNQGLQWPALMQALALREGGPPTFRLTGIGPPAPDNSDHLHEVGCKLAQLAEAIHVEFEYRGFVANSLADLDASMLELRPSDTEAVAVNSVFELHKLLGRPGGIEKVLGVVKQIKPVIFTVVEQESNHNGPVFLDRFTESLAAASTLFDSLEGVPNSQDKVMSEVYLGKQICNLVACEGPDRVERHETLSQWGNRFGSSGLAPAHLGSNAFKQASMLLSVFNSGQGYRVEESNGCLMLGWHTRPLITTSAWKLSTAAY
The assay can be described thus: two-hybrid; BD-DELLA (full-length, pGBKT7) and AD-GID1 (pGADT7) co-transformed in yeast AH109; growth on selective medium lacking tryptophan, leucine and histidine supplemented with 100 µM GA3.

Results are given in words; binding and its absence hold for the method and conditions named. For part of these data: Binding seen in cells or lysates may run through a third protein. Some entries that bind do so weakly or less than the wild type. Tags and fused reporters may be left off the sequences shown.

The record followed here is article PMC11079023.

In the case of AD-BZR1 (from UniProt Q8S307 1-336), the binding entry in assay [1] was “no binding”.

For the molecule AD-TCP14 (from UniProt Q93Z00 1-489), the binding result is “binds” in assay [2]; “binds” in assay [3]; “no binding” in assay [1]; “no binding” in assay [4]; “no binding” in assay [5].

Take TCP14-RFP (from UniProt Q93Z00 1-489): in the assay with RGA-GFP (Arabidopsis), the binding result is recorded as “binds”.

B1: AD-GID1c (receptor, UniProt Q940G6 1-344)
chain: MAGSEEVNLIESKTVVPLNTWVLISNFKLAYNLLRRPDGTFNRHLAEFLDRKVPANANPVNGVFSFDVIIDRQTNLLSRVYRPADAGTSPSITDLQNPVDGEIVPVIVFFHGGSFAHSSANSAIYDTLCRRLVGLCGAVVVSVNYRRAPENRYPCAYDDGWAVLKWVNSSSWLRSKKDSKVRIFLAGDSSGGNIVHNVAVRAVESRIDVLGNILLNPMFGGTERTESEKRLDGKYFVTVRDRDWYWRAFLPEGEDREHPACSPFGPRSKSLEGLSFPKSLVVVAGLDLIQDWQLKYAEGLKKAGQEVKLLYLEQATIGFYLLPNNNHFHTVMDEIAAFVNAECQ
As to B1, in assay [6], the binding entry is “binds”.

B2: AD-GID1b (receptor, UniProt Q9LYC1 1-358)
chain: MAGGNEVNLNECKRIVPLNTWVLISNFKLAYKVLRRPDGSFNRDLAEFLDRKVPANSFPLDGVFSFDHVDSTTNLLTRIYQPASLLHQTRHGTLELTKPLSTTEIVPVLIFFHGGSFTHSSANSAIYDTFCRRLVTICGVVVVSVDYRRSPEHRYPCAYDDGWNALNWVKSRVWLQSGKDSNVYVYLAGDSSGGNIAHNVAVRATNEGVKVLGNILLHPMFGGQERTQSEKTLDGKYFVTIQDRDWYWRAYLPEGEDRDHPACNPFGPRGQSLKGVNFPKSLVVVAGLDLVQDWQLAYVDGLKKTGLEVNLLYLKQATIGFYFLPNNDHFHCLMEELNKFVHSIEDSQSKSSPVLLTP
For the molecule B2, in assay [6], the binding entry was “binds”.
